In PubChem BioAssay AID1345082 (National Center for Advancing Translational Sciences (NCATS), 2018):
Screen size: about 94,000 compounds; about 4,000 (4.3%) were called active. Inconclusive results, whose numbers are uncertain, are shown with a selection of clear calls. Calls follow the shape of the dose curve; as a rule, active = well fitted inhibition curve with a large enough effect; inconclusive = small, poorly fitted or top-dose-only effect; inactive = no such curve, though single readings can be large or run the other way. Potencies of inconclusive entries are doubtful fits and often do not repeat.

Test: Cytotoxic Profiling in NIH 3T3 Cell Line of Diverse Libraries Using Quantitative High-Throughput Screening; also: nearly all actives have a fitted effect of over 55% in size
Details: NIH 3T3 viability, CellTiter-Glo ATP luminescence, 48-72 h; series mostly up to 96.7 µM
How it was run: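 First NIH 3T3 cells are plated at 400 cells/well; next compound is pinned in; then plates incubate 48 or 72 hr at 37 °C; finally CellTiter-Glo is added and luminescence read after 10 min.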
Potency is read from the fitted curve at half-maximal effect; tags tell the direction and shape of the fitted curve.

| SMILES | Potency |
| --- | --- |
| CN(Cc1ccco1)C(=O)c1cccc2c1CCN2C(=O)Nc1ccccc1 | inconclusive: 70.8 µM [inhibitor, single point] |
| O=C(O)COc1ccc(-c2nccc3c2C(=O)N(Cc2c[nH]c4ccccc24)CC(COc2ccccc2)O3)cc1 (stereo not given) | inconclusive: 70.8 µM [inhibitor, single point] |
| Cc1nn(-c2ccccc2)c2c1C(C(C)C)N(C1CCN(C(=O)c3ccccc3)C1)C2=O (stereo not given) | inconclusive: 50.1 µM [inhibitor, partial curve, poor fit] |
| COc1cccc(CN2CCC(Oc3ccc(C(=O)NC4CCCC4)cc3Cl)CC2)c1 | inconclusive: 39.8 µM [inhibitor, partial curve] |
| O=C(NCCc1cccs1)c1ccc(CN2C(=O)NC3(CCOCC3)C2=O)cc1 | inactive |
| O=C(c1cc(Cl)ccc1F)N1CCC[C@H]1c1nc(-c2ccc(F)cc2)no1 | inconclusive: 50.1 µM [inhibitor, single point] |
| O=C(C1CCC1)N1CCC(=O)N(C2CCCC2)Cc2ccccc21 | inconclusive: 50.1 µM [inhibitor, partial curve, poor fit] |
| CNC(=O)C(C)(C)N1CCC[C@H]1C(=O)NC1CCCCC1 | inactive |
| CN(C)c1ccc(CN2CCC3(C2)C(=O)N(c2ccccc2)c2ccccc23)cc1 (stereo not given) | active: 44.7 µM |
| COc1ccc(N2Cc3c(ncnc3N3CCN(C(C)=O)CC3)N(C)CC2=O)cc1 | inactive |
| O=C(c1ccccc1F)N1CCN(Cc2ccccc2-c2cccnc2)CC1 | inconclusive: 50.1 µM [inhibitor, partial curve, poor fit] |
| O=C1NC2(CCCN([S+](=O)([O-])c3ccsc3)C2)COc2ccccc21 (stereo not given) | inconclusive: 44.7 µM [inhibitor, partial curve, poor fit] |
| O=[S+]([O-])(c1cccc(C(F)(F)F)c1)N1CCC2(CC(c3cccnc3)=NO2)C1 (stereo not given) | inactive |
| Cn1ncc2c(N)nc(NC3CC(c4cc(=O)[nH]c(C5CC5)n4)C3)nc21 (stereo not given) | inconclusive: 89.1 µM [inhibitor, single point] |
| Cc1nc2cccnc2n1CC1CCCN(S(=O)(=O)c2ccc(CC(C)C)cc2)C1 (stereo not given) | inconclusive: 44.7 µM [inhibitor, partial curve, poor fit] |
| COc1ccc(-c2cc(-c3cccc(NC(C)=O)c3)cn3cncc23)cn1 | inconclusive: 14.1 µM [inhibitor, full curve, poor fit] |
| Cn1ncc2c(C(=O)NCc3cccc(F)c3)cc(-c3ccccc3C(F)(F)F)nc21 | inconclusive: 28.2 µM [inhibitor, full curve] |
| O=C(CCc1ccccc1)N1C[C@@H](CO)[C@@H]2Oc3ccc(Cl)cc3[C@@H]21 | inconclusive: 56.2 µM [inhibitor, partial curve, poor fit] |
| O=C(c1ccc2[nH]ccc2c1)N1CCCN(c2cc(-c3ccc(Br)cc3)[nH]n2)CC1 | active: 31.6 µM |
| COC(=O)CNC(=O)C1=NOC2CN(C(=O)NC(C)C)CC12 (stereo not given) | inactive |

| SMILES | Potency |
| --- | --- |
| COc1ccccc1-c1ccc(CN2CCC(NC(=O)C3CCCCC3)C2)cc1 (stereo not given) | inconclusive: 22.4 µM [inhibitor, full curve, poor fit] |
| O=C(O)c1cc2cn(C3CCCC3)cc2s1 | inconclusive: 70.8 µM [inhibitor, partial curve, poor fit] |
| Cc1ccccc1OCC(=O)N1CCc2c(nc3cc(-c4ccccc4Cl)[nH]n3c2=O)C1 | inconclusive: 31.6 µM [inhibitor, full curve] |
| Cc1ccc(CN2C(=O)OC(c3cccc(NC(=O)Cc4ccccc4)c3)C2C(=O)N2CCCC2)cc1 (stereo not given) | inconclusive: 50.1 µM [inhibitor, partial curve, poor fit] |
| CC1CCN(C(=O)c2ccc(CN3C(=O)NC4(CCS(=O)(=O)CC4)C3=O)cc2)CC1 | inactive |
| Cn1cccc1-c1noc(C2CCN(C(=O)C3CCCCC3)C2)n1 (stereo not given) | inconclusive: 50.1 µM [inhibitor, partial curve, poor fit] |
| O=C(Nc1cccc(-c2ccc(N3CCOCC3)nn2)c1)Nc1ccccc1C(F)(F)F | inconclusive: 39.8 µM [inhibitor, partial curve] |
| COc1cccc(-c2cc(C(=O)NCCCc3ccccc3)c3cnn(C)c3n2)c1 | inconclusive: 39.8 µM [inhibitor, partial curve] |
| Cc1ccc(NC(=O)Cn2cccc2-c2nc(-c3ccc4c(c3)OCO4)no2)cc1Cl | inconclusive: 44.7 µM [inhibitor, partial curve, poor fit] |
| O=C(c1cccnc1)N1CC[C@H](c2nnc(-c3cccnc3)o2)C1 | inactive |
| COc1ccccc1CNC(=O)c1ccc2c(c1)C(O)CCCCCN2C (stereo not given) | inconclusive: 50.1 µM [inhibitor, partial curve, poor fit] |
| Cc1ccc(C(=O)NC2CCCN(c3cc(-c4ccccc4)[nH]n3)C2)s1 (stereo not given) | inconclusive: 31.6 µM [inhibitor, partial curve] |
| O=C(NCc1ccccc1Cl)C1CN(C2CCCCC2)C(=O)N1 (stereo not given) | inactive |
| COC(=O)[C@H](Cc1ccc(OC)cc1)NC(=O)[C@@H]1CN(C(=O)c2cccc(F)c2)CCN1C(=O)C1CCNCC1 | inactive |
| O=C1CC(c2ccccc2)N(Cc2ccc(F)cc2F)CCCCCCN1 (stereo not given) | inconclusive: 50.1 µM [inhibitor, partial curve, poor fit] |
| CN1CCN(C(=O)c2ccc3nnc(Cc4ccc(Cl)cc4)n3c2)CC1 | inactive |
| Cc1ccccc1-c1cnc2[nH]cc(CC(=O)Nc3ccccc3)c2c1 | active: 39.8 µM |
| CCc1cccc(-n2nnnc2N2CCC(C(=O)Nc3ccc(C)c(F)c3)CC2)c1 | inconclusive: 44.7 µM [inhibitor, partial curve, poor fit] |
| Cc1nn(C)c(C)c1CCN(C)C(=O)C12CCCC=C1N(C1CCCC1)C(=O)CC2 (stereo not given) | inactive |
| O=C1N2CCCC2CN1C1CCN(Cc2ccccc2C(F)(F)F)CC1 (stereo not given) | inconclusive: 44.7 µM [inhibitor, partial curve, poor fit] |
